In PubChem BioAssay AID1460 (National Center for Advancing Translational Sciences (NCATS), 2008):
Where “and” joins values, the source holds several entries; their conditions need not be identical. Equal entries are not always repeated. About 5,800 (2.1%) of roughly 270,000 compounds were called active. Inconclusive results, whose numbers are uncertain, are shown with a selection of clear calls. The call rests on the fitted dose curve; in most records, active means well fitted inhibition curve with a large enough effect; inconclusive means small, poorly fitted or top-dose-only effect; inactive means flat fitted curve, though single readings scatter. A potency beside an inconclusive call is a rough fit, not a confirmed value.

Molecular target: Microtubule-associated protein tau (Homo sapiens) (UniProt P10636)
Chain of UniProt P10636 (P10636 whole entry, looked up): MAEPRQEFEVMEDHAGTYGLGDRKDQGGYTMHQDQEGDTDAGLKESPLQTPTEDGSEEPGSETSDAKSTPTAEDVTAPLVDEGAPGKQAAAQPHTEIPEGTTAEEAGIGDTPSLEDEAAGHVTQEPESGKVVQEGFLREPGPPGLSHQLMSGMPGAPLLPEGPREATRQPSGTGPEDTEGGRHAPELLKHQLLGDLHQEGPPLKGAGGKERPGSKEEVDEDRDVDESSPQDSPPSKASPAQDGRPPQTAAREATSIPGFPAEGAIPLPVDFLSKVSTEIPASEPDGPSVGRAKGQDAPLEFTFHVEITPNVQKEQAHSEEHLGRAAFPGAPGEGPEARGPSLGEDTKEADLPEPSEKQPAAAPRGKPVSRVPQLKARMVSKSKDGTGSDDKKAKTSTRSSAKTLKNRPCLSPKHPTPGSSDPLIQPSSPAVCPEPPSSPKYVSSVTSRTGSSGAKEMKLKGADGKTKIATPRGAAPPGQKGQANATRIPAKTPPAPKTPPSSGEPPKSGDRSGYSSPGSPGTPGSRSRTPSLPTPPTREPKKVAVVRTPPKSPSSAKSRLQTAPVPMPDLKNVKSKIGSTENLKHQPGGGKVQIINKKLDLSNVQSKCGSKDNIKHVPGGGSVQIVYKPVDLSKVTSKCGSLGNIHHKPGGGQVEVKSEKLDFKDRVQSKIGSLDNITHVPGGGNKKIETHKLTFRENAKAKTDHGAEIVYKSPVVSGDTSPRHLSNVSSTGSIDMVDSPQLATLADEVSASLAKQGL
Assay: qHTS for Inhibitors of Tau Fibril Formation, Thioflavin T Binding; further: nearly all actives have a fitted effect of over 55% in size
Conditions: recombinant tau K18 P301L (four-repeat tau fragment), heparin-induced fibrillization, ThT fluorescence; series mostly up to 57.4 µM; activity, negative = inhibition: at the top concentration
How it was run: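 Aggregation was driven by heparin (20 uM final) acting on recombinant tau […] bearing P301L in 100 mM sodium acetate pH 7; fibrils were detected with Thioflavin T.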
On the % scale 0 is the no-effect control and ±100 the full control effect; potency means the concentration at half of the fitted maximal effect; tags describe the fitted curve by direction and shape.

SMILES	Potency	activity, negative = inhibition
Cc1ccc(C)c(-n2[nH]c3c4c(ccc3c2=O)C(=O)c2ccccc2C4=O)c1	inconclusive: 25.1 µM [inhibitor, partial curve]	
C#Cc1ccc([C@@H]2C=C(C(=O)OCC=C)O[C@H](OCc3ccc(CO)cc3)C2)cc1	inconclusive: 35.5 µM [inhibitor, single point]	
CC(Sc1ccc2c(c1)OCCO2)C(=O)Nc1ccc2c(c1)OCO2 (centres undefined)		inactive: -6.04%
COc1ccc(N2CCN(S(=O)(=O)c3ccc4c(c3)C(C(C)C)C(=O)N4)CC2)cc1 (centres undefined)		inactive: -14.3%
Nc1nc(CCl)nc(Nc2cccc3ccccc23)n1	inconclusive: 10 µM [inhibitor, partial curve]	
N#C/C(=N\Nc1ccc([N+](=O)[O-])cc1)C(=N)N1CCOCC1	inconclusive: 15.8 µM [inhibitor, partial curve]	
COc1cc(-c2cccc([C@H]3[C@@H]4C=CC[C@@H](C)[C@@H]4C(=O)N3Cc3ccccc3)c2)cc(OC)c1OC		inactive: -11.6%
N#Cc1nc(-c2cccc3ccccc23)oc1NCCN1CCCCC1	inconclusive: 22.4 µM [inhibitor, partial curve]	
CCOc1ccc(OCC(=O)Nc2ccc(S(=O)(=O)Nc3cc(C)on3)cc2)cc1	inconclusive: 39.8 µM [inhibitor, partial curve, poor fit]	
CC1CN(C2=N/C(=C/c3ccc4c(c3)OCO4)C(=O)N2)CC(C)O1 (centres undefined)		inactive: -10%
O=C(Cc1ccccc1)Nc1ccc(-c2nnc(-c3ccco3)o2)cc1	inconclusive: 10 µM [inhibitor, single point]	
CCSc1ccc(-c2cccc([N+](=O)[O-])c2)nn1	inconclusive: 44.7 µM [inhibitor, single point]	
O=C1C2=C(c3ccccc31)[N+](=O)C1CCCCC1N2[O-] (centres undefined)	active: 15.8 µM	
Cc1cccc(Nc2nnc(SC/C(O)=C(\C#N)c3nc4ccccc4[nH]3)s2)c1C	inconclusive: 7.08 µM [inhibitor, partial curve]	
CC(=O)Nc1ccc(S(=O)(=O)N2CCc3nc(-c4ccccc4)c4c(c3C2)CO[C@@H](C)C4)cc1		inactive: -0.0714% [at 11.5 µM]
Cc1nc(SCn2nnc3ccccc3c2=O)nc(C)c1C		inactive: -9.23%
COc1ccc(Cl)cc1NC(=O)CSc1nccn1-c1ccc(Cl)cc1		inactive: -0.644%
COC(=O)CCC(=O)OC1(C)C(=O)C=C2C=C(C3CC3)N(C3CC3)C=C2C1=O (centres undefined)	inconclusive: 28.2 µM [inhibitor, partial curve] and inconclusive: 3.16 µM [inhibitor, partial curve]	
Cc1cc(/C=C(/C#N)c2nc3ccccc3[nH]2)c(C)n1-c1cccc([N+](=O)[O-])c1	inconclusive: 7.08 µM [inhibitor, partial curve]	
O=C(c1ccc(COc2ccc(Br)cc2)o1)N1N=C(C(F)F)CC1(O)C(F)F (centres undefined)	inconclusive: 0.562 µM [inhibitor, full curve, poor fit]	
COc1ccccc1C(=O)NCc1nc2cccnc2n1Cc1ccc(F)cc1		inactive: -6.75%
CC(C)(C)c1cc(CN2CCCCC2)cc(C(C)(C)C)c1O		inactive: 2.06%
Cc1nn(-c2ccccc2)c(N)c1N=Nc1cccnc1	inconclusive: 20 µM [inhibitor, partial curve]	

SMILES	Potency	activity, negative = inhibition
CCc1c(C)c2ccc(O)c(CN3CCN(c4ccc(F)cc4)CC3)c2oc1=O		inactive: -5.74%
C/C(=N\Nc1ccc([N+](=O)[O-])cc1[N+](=O)[O-])C(C)C(C)C (centres undefined)	inconclusive: 22.4 µM [inhibitor, partial curve]	
COc1ccnc(CSC(N)=Nc2ccc(F)cc2)c1	active: 28.2 µM	
c1ccc(-c2ccc(-c3ccccn3)s2)nc1	inconclusive: 2.51 µM [inhibitor, full curve]	
O=C(/C=C\Nc1ccccn1)c1ccc(Cl)cc1	inconclusive: 2.82 µM [inhibitor, full curve]	
COC(=O)C1=C(C)N(Cc2ccccc2)C2=C3C(=O)OCCC3[C@@](O)(C(=O)OC)C(=O)N2C1c1ccccc1 (some centres undefined)		inactive: -10.7% [at 11.5 µM]
COCCCNC(=O)c1cccn2c(=O)c3cc4ccccc4cc3nc12	active: 14.1 µM	
Cn1c(/C(C#N)=C/c2ccccc2Br)nc2ccccc21	inconclusive: 12.6 µM [inhibitor, partial curve]	
CCn1c(CNC(=O)c2ccc(OC)cc2)nnc1SCC(=O)Nc1cc(C)ccc1C		inactive: -7.06%
CCCOc1ccc(C(=O)NNC(=S)NC(=O)c2ccco2)cc1	inconclusive: 12.6 µM [inhibitor, partial curve]	
Cc1ccc(CSc2nc3ccccc3c(=O)[nH]2)cc1		inactive: -0.146%
COc1ccc2nc(NC(=O)CCc3ccc(OC)c(OC)c3)sc2c1	inconclusive: 0.891 µM [inhibitor, full curve]	
O=C1CCC/C(=N/NC(=O)c2sc3ccccc3c2Cl)C1	inconclusive: 12.6 µM [inhibitor, partial curve]	
Cc1ccc(Cl)cc1NC(=O)c1ccccc1OCC(=O)Nc1ccc(Cl)cc1		inactive: 5.5%
CSCCC(NS(=O)(=O)c1ccccc1F)C(=O)OCc1ccccc1Cl (centres undefined)		inactive: -6.69%
COc1ccc(N=Nc2nc3ccc(Br)cc3n2C)cc1	active: 1.58 µM	
O=C(NC(=S)NCc1ccccc1)c1cccnc1		inactive: 4.99%
COCCn1c(C)cc(O)c(C(c2ccccc2OC)N2CCN(c3ccccc3)CC2)c1=O (centres undefined)	inconclusive: 20 µM [inhibitor, single point]	
O=C(/C=C/C(=O)Oc1ccccc1C(=O)O)Oc1ccccc1C(=O)O	active: 25.1 µM	
Cc1ccc2nc(NC(=O)COC(=O)c3ccc(Br)o3)sc2c1	inconclusive: 20 µM [inhibitor, partial curve, poor fit]	
CCOC(=O)c1cc2n(c1/N=C/N(C)C)-c1ccccc1C2=O	active: 25.1 µM	
O=C1CC(N2CCCCCC2)C(=O)N1c1ccc2c(c1)OCO2 (centres undefined)	inconclusive: 25.1 µM [inhibitor, partial curve, poor fit]	
COc1ccccc1/C=C/c1nc(C#N)c(NC2CCCCC2)o1	inconclusive: 7.94 µM [inhibitor, partial curve]	

SMILES	Potency	activity, negative = inhibition
COc1cccc(OCc2cc(/C=N/Nc3ccc(C(=O)O)cc3)ccc2OC)c1	inconclusive: 14.1 µM [inhibitor, partial curve]	
Cc1cccc(NC(=O)CSC2=Nc3ccccc3C3=NC(CC(=O)NCc4cccs4)C(=O)N23)c1 (centres undefined)	inconclusive: 39.8 µM [inhibitor, single point]	
CCOc1ccc2c(c1)c(C(C)=O)c(C)n2-c1ccccc1	inconclusive: 31.6 µM [inhibitor, single point]	
COc1ccc(N2CCN(C(=O)CSc3nc4[nH]ncc4c(=O)n3-c3cccc4ccccc34)CC2)cc1	inconclusive: 12.6 µM [inhibitor, partial curve, poor fit]	
CC(=O)Nc1ccc(NC(=O)c2sc3nc4c(c(-c5ccc(C)cc5)c3c2N)CCC4)cc1		inactive: -8.97%
COCCCNC(=S)N1CCCN(c2nc3cc(C)c(C)cc3cc2C#N)CC1	inconclusive: 25.1 µM [inhibitor, single point]	
O=C(c1ccc(Oc2ccc(C(F)(F)F)cn2)cc1)N1CCN(c2ccccc2)CC1	inconclusive: 17.8 µM [inhibitor, partial curve, poor fit]	
Cc1cccc(CNC(=O)c2cc3cc(S(=O)(=O)N4CCCCC4)ccc3n2C)c1	inconclusive: 35.5 µM [inhibitor, single point]	
CCN(CC)c1ccc(/C=C(/C#N)C(=O)NCc2ccccc2)o1	inconclusive: 11.2 µM [inhibitor, partial curve]	
COc1ccc(NC(=O)CSc2oc(-c3cccs3)nc2S(=O)(=O)c2ccccc2)c(OC)c1		inactive: 2.24%
CCc1ccc(C(=O)COC(=O)c2ccc(-c3nnc(-c4ccccc4)o3)cc2)cc1	inconclusive: 0.631 µM [inhibitor, full curve]	
O=C(N/N=C/c1ccc(N2CCOCC2)s1)c1ccccc1Cl	inconclusive: 8.91 µM [inhibitor, partial curve]	
COc1ccc(-c2nn(-c3ccccc3)cc2/C=N/Nc2ccccn2)cc1OC	inconclusive: 39.8 µM [inhibitor, single point]	
Clc1ccc2c(c1)-n1cc(-c3ccccc3)nc1CO2	inconclusive: 1.78 µM [inhibitor, full curve]	
O=C1CCC(C(=O)OCC(=O)N2N=C3/C(=C/c4ccccc4)CCCC3C2c2ccccc2)N1 (centres undefined)	inconclusive: 15.8 µM [inhibitor, partial curve]	
COc1ccc(N=C2SCC(c3ccccc3)=NN2C)cc1	inconclusive: 25.1 µM [inhibitor, partial curve]	
CC(C)C(=O)Nc1ccnc(-c2cccnc2)n1		inactive: -0.908%
C/C(=N\NC(=O)c1cccs1)C(C)(C)C		inactive: -7.56%
O=C(O)CCC(=O)Nc1ccc(N=Nc2ccccc2)cc1	inconclusive: 14.1 µM [inhibitor, partial curve]	
Oc1ccc(C(c2nnnn2CCc2ccccc2)N2CCN(c3nc4ccccc4s3)CC2)cc1 (centres undefined)		inactive: -12.3%
O=C(Nc1ccc([N+](=O)[O-])cn1)c1ccc(Br)o1	inconclusive: 1.26 µM [inhibitor, full curve]	
Nc1nonc1-n1nnc(C(=O)N/N=C/C=C/c2ccccc2)c1CSC1=NCCS1		inactive: -11.4%
C#CCn1c(=NC(=O)c2ccc(S(=O)(=O)N3CCCc4ccccc43)cc2)sc2cc(S(N)(=O)=O)ccc21	inconclusive: 28.2 µM [activator, single point]	
